Consider 93 compounds from PubChem BioAssay AID360 (National Center for Advancing Translational Sciences (NCATS), 2006).

Molecules are shown by their SMILES. Screen size: about 48,000 compounds; about 550 (1.1%) were called active. About 4% were inconclusive and are not listed. No stated cut-off is given here; in the data, active means potency below about 15 µM; inconclusive means mostly about 16 µM to 33 µM; inactive means weaker than that. The list shows a part of the results.
Potency means the concentration at half of the fitted maximal effect.

The experiment deals with Lysosomal acid glucosylceramidase (Homo sapiens) (UniProt P04062). Description: Glucocerebrosidase.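 Further: the screen sought inhibitors.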 The following applies: purified enzyme, resorufin glucoside fluorescence (screen aimed at inhibitors), 20 min. Put shortly: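 Wild-type enzyme at 0.2 nM final in 50mM citric acid/KH2PO4, 10mM sodium taurocholate, 0.01% tween-20, pH 5.9, with resorufin beta-D-glucopyranoside at 30 uM final. Compounds titrated, 20 min at RT, red fluorescence read; AC50 from titration.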
Chain of UniProt P04062 (P04062 whole entry, looked up): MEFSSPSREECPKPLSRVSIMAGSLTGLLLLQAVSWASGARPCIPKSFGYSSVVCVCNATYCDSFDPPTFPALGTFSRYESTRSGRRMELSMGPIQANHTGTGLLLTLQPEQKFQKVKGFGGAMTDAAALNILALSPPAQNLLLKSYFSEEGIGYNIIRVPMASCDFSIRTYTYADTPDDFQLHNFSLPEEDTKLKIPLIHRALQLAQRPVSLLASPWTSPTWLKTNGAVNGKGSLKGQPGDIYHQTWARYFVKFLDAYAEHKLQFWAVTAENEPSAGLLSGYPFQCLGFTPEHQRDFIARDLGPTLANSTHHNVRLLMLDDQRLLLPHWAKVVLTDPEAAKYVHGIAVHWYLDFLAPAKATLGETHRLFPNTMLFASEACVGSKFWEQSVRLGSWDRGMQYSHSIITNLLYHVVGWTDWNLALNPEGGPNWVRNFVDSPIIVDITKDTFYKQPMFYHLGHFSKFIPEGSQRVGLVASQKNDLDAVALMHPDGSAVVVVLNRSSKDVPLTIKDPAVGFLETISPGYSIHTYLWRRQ
Take `O=C(Nc1ccc(F)cc1)c1ccc(S(=O)(=O)NCC2CCCO2)cc1` (stereo not drawn): the Potency was inactive: > 76.9 µM. In the case of `CCOC(=O)C1=C(C)NC(=O)NC1c1ccc(NC(C)=O)cc1` (stereo not drawn), the Potency is inactive: > 76.9 µM. The value for `CCN(CC(=O)Nc1c(C(=O)OC)[nH]c2ccccc12)c1ccc2c(c1)OCO2` was inactive: > 76.9 µM; that for `Cc1cccc(Cn2c(NCCO)nc3c2c(=O)n(C)c(=O)n3C)c1` was inactive: > 76.9 µM. The value for `COC(=O)C(CCSC)NC(=O)C(NC(=O)C1CCC(C)CC1)C(C)C` (stereo not drawn) was inactive: > 76.9 µM; that for `COc1ccc(CCNC(=O)c2cc3sccc3n2C)cc1OC` was inactive: > 76.9 µM; that for `C=CCn1c(SCC(=O)Nc2ccc3c(c2)OCO3)nc2ccccc2c1=O` was inactive: > 76.9 µM. To `CCc1c(C(=O)NC2CCCC2)csc1C` belongs inactive: > 76.9 µM; to `CCCCCn1c(Br)nc2c1c(=O)n(CC(N)=O)c(=O)n2C`, inactive: > 76.9 µM; to `COc1ccc(N(CC(=O)NC(C)(C)C)S(=O)(=O)c2ccccc2)cc1OC`, inactive: > 76.9 µM.

Consider `COc1cc(OC)c(C2=NOC(C(=O)O)C2)cc1Cl` (stereo not drawn), for which the Potency was inactive: > 76.9 µM.

On to `CC(=O)Nc1sc(C)c(C)c1CN1CCN(S(=O)(=O)c2ccccc2)CC1`, for which the Potency is inactive: > 76.9 µM. The value for `O=c1cc(CSc2nnc(COc3ccccc3)o2)c2ccccc2[nH]1` was inactive: > 76.9 µM; that for `Cn1c(CN2CCOCC2)nc2cc(NC(=O)c3ccc(F)cc3)ccc21` was inactive: > 76.9 µM; that for `CCc1ccc(-c2ccc(C(=O)O)cc2)nc1` was inactive: > 76.9 µM. As to `CC(=O)OC1CC(C)(C)N(OC(=O)c2ccc(N)cc2)C(C)(C)C1`, the Potency is inactive: > 76.9 µM. The value for `N#Cc1ccc2ccn(CC(=O)N3CCCc4ccccc43)c2c1` was inactive: > 76.9 µM; that for `O=S(=O)(c1ccc(N2CCN(c3ccc(F)cc3)CC2)cc1)N1CCCC1` was inactive: > 76.9 µM; that for `Clc1ccc(Cn2nnc(-c3ccc(N4CCOCC4)cc3)n2)cc1` was inactive: > 76.9 µM.

As for `O=C(Nc1cccnc1)c1cnc2ccccc2n1`, the Potency was inactive: > 76.9 µM. The value for `COc1ccc(NC(=O)NC(C)c2ccncc2)cc1OC` (stereo not drawn) was inactive: > 76.9 µM; that for `Cc1cc(-c2ccccc2N)n[nH]1` was inactive: > 76.9 µM; that for `C=CCOc1ccccc1/C=c1\sc2nc(=O)c(C)nn2c1=O` was inactive: > 76.9 µM. As to `CCOC(=O)CNC(=O)Nc1cccc(Cl)c1C`, the Potency is inactive: > 76.9 µM. To `O=c1[nH]cnc2scc(-c3cccs3)c12` belongs inactive: > 76.9 µM; to `CCOC(=O)c1nnc(-c2ccccc2)o1`, inactive: > 76.9 µM; to `Cc1cc(C)c2c(C)nn(C3CCCCC3)c2n1`, inactive: > 76.9 µM.

Turning to `O=C1CCCN1CC(CN1CCOCC1)Sc1nnnn1-c1ccccc1` (stereo not drawn), the Potency is inactive: > 76.9 µM. Take `CCOC(=O)C(C)Sc1nc2c(cnn2-c2ccc(C)cc2)c(=O)[nH]1` (stereo not drawn): the Potency was inactive: > 76.9 µM. To `CC1CCC(NC(=O)c2ccc(CS(=O)(=O)Cc3ccccc3F)o2)CC1` (stereo not drawn) belongs inactive: > 76.9 µM; to `O=C(CN1CCN(c2ccccc2)CC1)Nc1ccccc1C(F)(F)F`, inactive: > 76.9 µM. As to `CC(=O)Nc1cccc(NC(=O)CSc2nnnn2C)c1`, the Potency was inactive: > 76.9 µM. For `c1ccc(CCNC2=NCCCS2)cc1`, the Potency is inactive: > 76.9 µM.

As to `Cc1c2c(nc3c(C(=O)NC4CCCCC4C)cnn13)CCCC2` (stereo not drawn), the Potency is inactive: > 76.9 µM.

In the case of `CCOc1cc(C(=O)NC)cc(OCC)c1OCC`, the Potency is inactive: > 76.9 µM. In the case of `O=C(NCc1cccs1)c1cc2c(s1)CCCC2`, the Potency was inactive: > 76.9 µM. To `COc1ccccc1CNC(=O)C1CCN(S(=O)(=O)N2CCCCC2)CC1` belongs inactive: > 76.9 µM. To `CSc1ccccc1NC(=O)CN(c1ccccc1)S(=O)(=O)N(C)C` belongs inactive: > 76.9 µM; to `CC(C)(C)Sc1nc(O)cc(=O)[nH]1`, inactive: > 76.9 µM. To `Cc1cccc(-c2nnn(CC/C(N)=N/O)n2)c1` belongs inactive: > 76.9 µM; to `CCOc1ccc(CNC(=O)C2CCC(=O)N2C2CCCC2)cc1OC` (stereo not drawn), inactive: > 76.9 µM; to `COc1ccc(C(=O)N2CCOCC2)cc1Br`, inactive: > 76.9 µM. As for `O=C(O)C1C2C=CC3(O2)C1C(=O)N1c2ccccc2COC13` (stereo not drawn), the Potency was inactive: > 76.9 µM.

With `COc1ccccc1NC(=O)c1ccccc1-c1nc(-c2ccccc2OC)no1`, the Potency was inactive: > 76.9 µM. For `CCOC(=O)CSc1nnc(CNC(=O)c2ccc(S(=O)(=O)N3CCCC3)cc2)n1C`, the Potency is inactive: > 76.9 µM. To `Cn1c(=O)c(C(=O)CN2CCOCC2)c(N)n(Cc2ccccc2)c1=O` belongs inactive: > 76.9 µM; to `O=c1[nH]c2ccc(Cl)cc2c(=O)n1Cc1ccco1`, inactive: > 76.9 µM; to `COc1ccccc1CN(CC(=O)NCc1ccco1)C(=O)CNS(=O)(=O)c1ccccc1`, inactive: > 76.9 µM. The value for `C1CCc2c(nc3nnnn3c2N2CCOCC2)C1` was inactive: > 76.9 µM; that for `Cc1ccc(-n2c(CNc3ccc(F)cc3)nnc2SCC(=O)NCc2ccco2)cc1` was inactive: > 76.9 µM. For `COc1cc(C2=NOC(C(=O)Nc3ccc(C(C)=O)cc3)C2)cc(OC)c1OC` (stereo not drawn), the Potency is inactive: > 76.9 µM.

With `Cc1ccc(C)c(-n2c(N)c(C(N)=O)sc2=S)c1`, the Potency was inactive: > 76.9 µM. The value for `COC(=O)c1c(-c2ccc(F)cc2)noc1N` was inactive: > 76.9 µM. Take `COc1ccccc1N1CCN(C(=O)CCn2c(=O)[nH]c3ccsc3c2=O)CC1`: the Potency was inactive: > 76.9 µM. The value for `N#Cc1c(NC(=O)CN2CCOCC2)oc(-c2ccccc2)c1-c1ccccc1` was inactive: > 76.9 µM; that for `Cc1csc(NC(=O)CSc2nnc(-c3ccoc3C)n2CCc2ccccc2)n1` was inactive: > 76.9 µM; that for `Cc1ccc(N2CC(C(=O)NCc3cccs3)CC2=O)cc1` (stereo not drawn) was inactive: > 76.9 µM. The value for `CCCn1nnc(NC(=O)c2cc(Br)ccc2OC)n1` was inactive: > 76.9 µM; that for `CN(CC(=O)N1CCN(c2ccccn2)CC1)S(=O)(=O)c1ccccc1` was inactive: > 76.9 µM.

Take `Cc1nc2ccc(CCO)cc2s1`: the Potency was inactive: > 76.9 µM. `CCOCCCn1c(=S)[nH]c2ncccc2c1=O`: the Potency is inactive: > 76.9 µM. To `Cc1ccc(N2CCCCn3c2nc2c3c(=O)[nH]c(=O)n2C)cc1` belongs inactive: > 76.9 µM; to `Cn1c(=O)c2c(nc(SCC(=O)NCC3CCCO3)n2C)n(C)c1=O` (stereo not drawn), inactive: > 76.9 µM; to `Cc1ccc(CN2C3=NC(=O)CN3c3ccccc32)cc1`, inactive: > 76.9 µM.

For the compound `CCCc1nc(NCc2ccco2)c(C#N)c2c1COC(C)(C)C2`, the Potency was inactive: > 76.9 µM. To `CCCC1(C(=O)OCC)NC(c2ccc(N(C)C)cc2)C2C(=O)N(c3ccc(F)cc3)C(=O)C21` (stereo not drawn) belongs inactive: > 76.9 µM; to `COc1ccc2c(c1)c(C(O)CN1CCC3(CC1)OCCO3)c(C)n2C` (stereo not drawn), inactive: > 76.9 µM. Take `OC1(c2cccc(F)c2)CCN(Cc2ccncc2)CC1`: the Potency was inactive: > 76.9 µM. With `Cc1cc(C)cc(N(CCC#N)C(=O)CSc2nc3nc(C)cc(C)n3n2)c1`, the Potency is inactive: > 76.9 µM. The value for `CCN(CC)S(=O)(=O)c1ccc(NC(=O)CN(c2ccc(OC)cc2OC)S(C)(=O)=O)cc1` was inactive: > 76.9 µM.

As for `O=C(CSc1nnnn1-c1ccc2c(c1)OCO2)NCc1ccccc1`, the Potency was inactive: > 76.9 µM. To `CCCc1ncc(C(O)c2cccc3ccccc23)n1C` (stereo not drawn) belongs inactive: > 76.9 µM. As for `COc1ccc(OC)c(NC=C2C(=O)OC3(CCCCC3)OC2=O)c1`, the Potency is inactive: > 76.9 µM. To `Cc1cccn2cc(CNC(=O)c3ccco3)nc12` belongs inactive: > 76.9 µM; to `CCC1CCCCN1CCCNC(=O)Cn1nc(-c2ccccc2)ccc1=O` (stereo not drawn), inactive: > 76.9 µM; to `COCCNC(=O)CN(c1cc(Cl)ccc1OC)S(C)(=O)=O`, inactive: > 76.9 µM. The value for `CC1(C(=O)NC2CCCC2)CCC(=O)N1Cc1ccccc1` (stereo not drawn) was inactive: > 76.9 µM; that for `CCC(C)(C)NC(=O)C1CCN(c2nc(C)cc(C)n2)CC1` was inactive: > 76.9 µM.

Turning to `CN(C(=O)c1ccc(Cl)c(S(=O)(=O)N2CCOCC2)c1)c1ccccc1C(=O)O`, the Potency is inactive: > 76.9 µM. With `COc1ccccc1-c1cc(C(F)(F)F)nc(S(=O)(=O)CCCC(=O)NC(C)C)n1`, the Potency is inactive: > 76.9 µM. The value for `Cc1cccc(Nc2nc(NC(C)C)nc(Oc3ccc(=O)n(C)n3)n2)c1` was inactive: > 76.9 µM; that for `CC(C)(C)NS(=O)(=O)c1ccc2nc(NC(=O)Cc3cccs3)sc2c1` was inactive: > 76.9 µM. In the case of `COc1ccc(Cn2nnnc2C(c2ccc(N(C)C)cc2)N2CCC(C)CC2)cc1` (stereo not drawn), the Potency is inactive: > 76.9 µM.

Turning to `CCn1c(SCC(=O)NC)nnc1C(C)C`, the Potency was inactive: > 76.9 µM.

`CCOc1ccc(NC(=O)Cn2nnc(C(=O)NCc3ccccc3OC)c2N)cc1`: the Potency is inactive: > 76.9 µM. On to `C1=Nc2c(Nc3ccccc3)ncnc2Oc2ccccc21`, for which the Potency was inactive: > 76.9 µM.

For the compound `CCOC(=O)c1cccc(NC(=O)CSc2nnnn2CC)c1`, the Potency was inactive: > 76.9 µM. The value for `O=C(NCC1CCCO1)C1C2C=CC3(CN(Cc4cccs4)C(=O)C13)O2` (stereo not drawn) was inactive: > 76.9 µM; that for `N#CC(C(=O)OC1CCCCC1)c1nc2ccccc2nc1N1CCCCC1` (stereo not drawn) was inactive: > 76.9 µM.

Regarding `O=C(NC1CC2CCCC(C1)N2CC(=O)N1CCCc2ccccc21)C1CCCCC1` (stereo not drawn), the Potency is inactive: > 76.9 µM. The value for `CCOC(=O)Nc1ccc(C(N)=O)cc1` was inactive: > 76.9 µM. Turning to `COc1ccccc1N1CCN(C(=O)CSc2nnc3n2C(C)(C)Cc2ccccc2-3)CC1`, the Potency is inactive: > 76.9 µM.

With `CCCn1c(-c2ccc(F)cc2)cnc1SCC(=O)O`, the Potency was inactive: > 76.9 µM.
